Patent US20200347115A1 (Hoffmann-La Roche, published 2020)

B1: FAP(4B9)-4-1BBL (Charged variant), Construct 2.4 of WO 2016/075278 (Fc fusion)
chain 1: REGPELSPDDPAGLLDLRQGMFAQLVAQNVLLIDGPLSWYSDPGLAGVSLTGGLSYKEDTKELVVAKAGVYYVFFQLELRRVVAGEGSGSVSLALHLQPLRSAAGAAALALTVDLPPASSEARNSAFGFQGRLLHLSAGQRLGVHLHTEARARHAWQLTQGATVLGLFRVTPEIPAGLGGGGSGGGGSREGPELSPDDPAGLLDLRQGMFAQLVAQNVLLIDGPLSWYSDPGLAGVSLTGGLSYKEDTKELVVAKAGVYYVFFQLELRRVVAGEGSGSVSLALHLQPLRSAAGAAALALTVDLPPASSEARNSAFGFQGRLLHLSAGQRLGVHLHTEARARHAWQLTQGATVLGLFRVTPEIPAGLGGGGSGGGGSRTVAAPSVFIFPPSDRKLKSGTASVVCLLNNFYPREAKVQWKVDNALQSGNSQESVTEQDSKDSTYSLSSTLTLSKADYEKHKVYACEVTHQGLSSPVTKSFNRGE[omitted - human IgG1 Fc with changes]
chain 2: REGPELSPDDPAGLLDLRQGMFAQLVAQNVLLIDGPLSWYSDPGLAGVSLTGGLSYKEDTKELVVAKAGVYYVFFQLELRRVVAGEGSGSVSLALHLQPLRSAAGAAALALTVDLPPASSEARNSAFGFQGRLLHLSAGQRLGVHLHTEARARHAWQLTQGATVLGLFRVTPEIPAGLGGGGSGGGGSASTKGPSVFPLAPSSKSTSGGTAALGCLVEDYFPEPVTVSWNSGALTSGVHTFPAVLQSSGLYSLSSVVTVPSSSLGTQTYICNVNHKPSNTKVDEKVEPKSC
heavy: EVQLLESGGGLVQPGGSLRLSCAASGFTFSSYAMSWVRQAPGKGLEWVSAIIGSGASTYYADSVKGRFTISRDNSKNTLYLQMNSLRAEDTAVYYCAKGWFGGFNYWGQGTLVTVSSASTKGPSVFPLAPSSKSTSGGTAALGCLVKDYFPEPVTVSWNSGALTSGVHTFPAVLQSSGLYSLSSVVTVPSSSLGTQTYICNVNHKPSNTKVDKKVEPKSCDKTHTCPPCPAPEAAGGPSVFLFPPKPKDTLMISRTPEVTCVVVDVSHEDPEVKFNWYVDGVEVHNAKTKPREEQYNSTYRVVSVLTVLHQDWLNGKEYKCKVSNKALGAPIEKTISKAKGQPREPQVCTLPPSRDELTKNQVSLSCAVKGFYPSDIAVEWESNGQPENNYKTTPPVLDSDGSFFLVSKLTVDKSRWQQGNVFSCSVMHEALHNHYTQKSLSLSPGK
light: EIVLTQSPGTLSLSPGERATLSCRASQSVTSSYLAWYQQKPGQAPRLLINVGSRRATGIPDRFSGSGSGTDFTLTISRLEPEDFAVYYCQQGIMLPPTFGQGTKVEIKRTVAAPSVFIFPPSDEQLKSGTASVVCLLNNFYPREAKVQWKVDNALQSGNSQESVTEQDSKDSTYSLSSTLTLSKADYEKHKVYACEVTHQGLSSPVTKSFNRGEC
B2: FAP (4B9)-4-1BB ligand (71-248) contorsbody P1AA9626 (Fc fusion)
chain 1: REGPELSPDDPAGLLDLRQGMFAQLVAQNVLLIDGPLSWYSDPGLAGVSLTGGLSYKEDTKELVVAKAGVYYVFFQLELRRVVAGEGSGSVSLALHLQPLRSAAGAAALALTVDLPPASSEARNSAFGFQGRLLHLSAGQRLGVHLHTEARARHAWQLTQGATVLGLFRVTPEIPAGLGGGGSGGGGSDKTHTCPPCPAPEAAGGPSVFLFPPKPKDTLMISRTPEVTCVVVDVSHEDPEVKFNWYVDGVEVHNAKTKPREEQYNSTYRVVSVLTVLHQDWLNGKEYKCKVSNKALGAPIEKTISKAKGQPREPQVCTLPPSRDELTKNQVSLSCAVKGFYPSDIAVEWESNGQPENNYKTTPPVLDSDGSFFLVSKLTVDKSRWQQGNVFSCSVMHEALHNHYTQKSLSLSPGGGGGSGGGGSREGPELSPDDPAGLLDLRQGMFAQLVAQNVLLIDGPLSWYSDPGLAGVSLTGGLSYKEDTKELVVAKAGVYYVFFQLELRRVVAGEGSGSVSLALHLQPLRSAAGAAALALTVDLPPASSEARNSAFGFQGRLLHLSAGQRLGVHLHTEARARHAWQLTQGATVLGLFRVTPEIPAGLGGGGSGGGGSREGPELSPDDPAGLLDLRQGMFAQLVAQNVLLIDGPLSWYSDPGLAGVSLTGGLSYKEDTKELVVAKAGVYYVFFQLELRRVVAGEGSGSVSLALHLQPLRSAAGAAALALTVDLPPASSEARNSAFGFQGRLLHLSAGQRLGVHLHTEARARHAWQLTQGATVLGLFRVTPEIPAGL
chain 2: EVQLLESGGGLVQPGGSLRLSCAASGFTFSSYAMSWVRQAPGKGLEWVSAIIGSGASTYYADSVKGRFTISRDNSKNTLYLQMNSLRAEDTAVYYCAKGWFGGFNYWGQGTLVTVSSASTKGPSVFPLAPSSKSTSGGTAALGCLVKDYFPEPVTVSWNSGALTSGVHTFPAVLQSSGLYSLSSVVTVPSSSLGTQTYICNVNHKPSNTKVDKKV[omitted - human IgG1 Fc with changes]GGGGSGGGGSEIVLTQSPGTLSLSPGERATLSCRASQSVTSSYLAWYQQKPGQAPRLLINVGSRRATGIPDRFSGSGSGTDFTLTISRLEPEDFAVYYCQQGIMLPPTFGQGTKVEIKRTVAAPSVFIFPPSDEQLKSGTASVVCLLNNFYPREAKVQWKVDNALQSGNSQESVTEQDSKDSTYSLSSTLTLSKADYEKHKVYACEVTHQGLSSPVTKSFNRGEC

How the values were obtained:
[1] = target: T1, human 4-1BB (CD137) (human, UniProt Q07011 24-255); experiment: cell-based or functional assay; design: AUC of NFκB-luciferase activation curve, HeLa-hu4-1BB-NFκB-luc clone 26, no FAP-expressing cells / AUC of NFκB-luciferase activation curve, HeLa-hu4-1BB-NFκB-luc clone 26, with WM-266-4 cells: unit not given beside the values
[2] = target: T1, human 4-1BB (CD137); experiment: cell-based or functional assay

| Binder | AUC of NFκB-luciferase activation curve, HeLa-hu4-1BB-NFκB-luc clone 26, no FAP-expressing cells [1] | AUC of NFκB-luciferase activation curve, HeLa-hu4-1BB-NFκB-luc clone 26, with NIH/3T3-huFAP clone 19 cells [1] | AUC of NFκB-luciferase activation curve, HeLa-hu4-1BB-NFκB-luc clone 26, with WM-266-4 cells [1] | EC50 of NFκB-luciferase activation, HeLa-hu4-1BB-NFκB-luc clone 26, no FAP-expressing cells [1] [nM] | EC50 of NFκB-luciferase activation, HeLa-hu4-1BB-NFκB-luc clone 26, with NIH/3T3-huFAP clone 19 cells [1] [nM] | EC50 of NFκB-luciferase activation, HeLa-hu4-1BB-NFκB-luc clone 26, with WM-266-4 cells [1] [nM] | AUC, % CD25+ of CD4 T cells, anti-CD3 stimulated human PBMC with NIH/3T3-huFAP clone 19 [2] | AUC, % CD25+ of CD8 T cells, anti-CD3 stimulated human PBMC with NIH/3T3-huFAP clone 19 [2] | AUC, % CD137+ of CD4 T cells, anti-CD3 stimulated human PBMC with NIH/3T3-huFAP clone 19 [2] | AUC, % CD137+ of CD8 T cells, anti-CD3 stimulated human PBMC with NIH/3T3-huFAP clone 19 [2] | EC50, % CD25+ of CD4 T cells, anti-CD3 stimulated human PBMC with NIH/3T3-huFAP clone 19 [2] [nM] | EC50, % CD25+ of CD8 T cells, anti-CD3 stimulated human PBMC with NIH/3T3-huFAP clone 19 [2] [nM] | EC50, % CD137+ of CD4 T cells, anti-CD3 stimulated human PBMC with NIH/3T3-huFAP clone 19 [2] [nM] | EC50, % CD137+ of CD8 T cells, anti-CD3 stimulated human PBMC with NIH/3T3-huFAP clone 19 [2] [nM] |
| --- | --- | --- | --- | --- | --- | --- | --- | --- | --- | --- | --- | --- | --- | --- |
| B1 | 8030 | 56200 | 31500 | 0.25 | 0.01 | 0.05 | 471 | 498 | 59 | 59 | 0.009 | 0.008 | 0.07 | 0.05 |
| B2 | 8250 | 47300 | 24200 | 0.92 | 0.01 | 0.07 | – | – | – | – | – | – | – | – |
